Over roughly 33,000 sequences, “E-score (-0.5 to 0.5)” has its median near -0.053; the highest 2% begin near 0.37. Some of the results follow.
Target: Hap1 (UniProt P0CE41)
Experiment: PBM E-score (8-mer binding enrichment) (E-score (-0.5 to 0.5)); higher = stronger / more preferred TF binding; most listed sequences are background and not binding sites
Details: protein concentration: 200 nM; construct: GST-DNA-binding domain
Method in brief: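 Detection of bound protein used fluorescent anti-GST, with scans normalised by masliner. The proteins were GST-tagged yeast transcription factors applied at about 100-200 nM to universal all-10-mer Agilent arrays made double-stranded by primer extension. Each ungapped eight-base word, pooled with its reverse complement, was scored with an E-score from the Universal PBM Analysis Suite.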

Sequence of UniProt P0CE41 (P0CE41 whole entry): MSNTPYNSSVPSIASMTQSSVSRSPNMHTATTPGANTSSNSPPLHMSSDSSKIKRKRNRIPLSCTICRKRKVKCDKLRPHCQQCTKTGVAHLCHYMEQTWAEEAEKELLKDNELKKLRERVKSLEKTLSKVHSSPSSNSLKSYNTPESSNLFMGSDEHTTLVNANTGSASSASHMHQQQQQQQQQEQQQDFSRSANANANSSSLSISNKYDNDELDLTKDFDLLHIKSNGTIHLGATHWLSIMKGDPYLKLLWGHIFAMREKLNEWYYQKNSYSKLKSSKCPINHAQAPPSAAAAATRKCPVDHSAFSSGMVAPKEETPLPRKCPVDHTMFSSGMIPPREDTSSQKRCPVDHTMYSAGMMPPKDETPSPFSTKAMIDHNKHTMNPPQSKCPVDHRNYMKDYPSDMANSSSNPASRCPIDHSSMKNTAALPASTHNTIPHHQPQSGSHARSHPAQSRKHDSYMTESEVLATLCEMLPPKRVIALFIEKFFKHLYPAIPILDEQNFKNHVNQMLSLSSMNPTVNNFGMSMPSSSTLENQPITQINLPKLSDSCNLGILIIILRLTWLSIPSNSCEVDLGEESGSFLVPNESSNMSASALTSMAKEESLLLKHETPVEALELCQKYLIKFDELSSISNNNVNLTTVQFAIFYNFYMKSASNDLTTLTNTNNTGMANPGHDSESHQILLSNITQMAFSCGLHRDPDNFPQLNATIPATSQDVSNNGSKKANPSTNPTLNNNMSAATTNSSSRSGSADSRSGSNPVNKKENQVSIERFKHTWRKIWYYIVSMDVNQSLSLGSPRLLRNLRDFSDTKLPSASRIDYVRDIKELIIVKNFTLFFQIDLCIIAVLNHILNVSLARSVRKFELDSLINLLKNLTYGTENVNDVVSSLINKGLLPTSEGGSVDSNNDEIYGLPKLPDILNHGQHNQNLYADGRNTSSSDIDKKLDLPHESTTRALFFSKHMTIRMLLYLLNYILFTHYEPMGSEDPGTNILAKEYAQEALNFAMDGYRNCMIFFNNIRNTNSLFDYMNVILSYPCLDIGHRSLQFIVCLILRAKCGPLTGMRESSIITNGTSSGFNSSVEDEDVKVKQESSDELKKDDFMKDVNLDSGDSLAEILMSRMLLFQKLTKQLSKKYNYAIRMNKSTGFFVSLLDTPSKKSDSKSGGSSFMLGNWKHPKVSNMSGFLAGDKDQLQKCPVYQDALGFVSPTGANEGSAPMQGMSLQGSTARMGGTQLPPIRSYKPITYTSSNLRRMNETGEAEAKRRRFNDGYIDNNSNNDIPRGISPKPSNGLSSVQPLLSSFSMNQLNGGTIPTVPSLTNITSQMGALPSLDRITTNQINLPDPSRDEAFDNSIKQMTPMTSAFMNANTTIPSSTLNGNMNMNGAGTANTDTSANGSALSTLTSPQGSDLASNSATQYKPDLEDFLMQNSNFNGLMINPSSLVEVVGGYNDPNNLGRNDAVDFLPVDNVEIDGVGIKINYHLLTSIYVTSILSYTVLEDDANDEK

Row | Sequence | PBM E-score
1 | CATGGTAC | -0.135
2 | GGATGGGA | -0.0996
3 | AAAAGCCA | 0.121
4 | CCCGCAGG | 0.179
5 | TAGTACAA | -0.229
6 | CCCGTGAG | -0.0169
7 | CACTTCTA | -0.00161
8 | AAGAACGA | -0.057
9 | CTGATCAC | -0.242
10 | CATCGGGG | 0.277
11 | AAAGGCTG | -0.0944
12 | CGCACTTA | 0.256
13 | TCGGTACA | 0.126
14 | ACGTCAGG | -0.135
15 | ATGTAGTC | -0.174
16 | CACTACAG | -0.167
17 | CGGAGTAC | 0.254
18 | GGTAACCA | -0.18
19 | GCTTTGAA | -0.101
20 | TGATCCCA | -0.0926
21 | CGTGGAAC | 0.0436
22 | ATTGTGGA | -0.186
23 | ACGTGAAC | -0.112
24 | CAGATGCC | -0.153
25 | CCATTCAG | -0.0732

Row | Sequence | PBM E-score
26 | GACGGGGA | 0.213
27 | CGCGGGCC | 0.178
28 | AGCGTACC | 0.0072
29 | CCCGAATC | 0.305
30 | TCGCCTCA | -0.028
31 | GTATGCGA | -0.0349
32 | CTCCGTTA | 0.367
33 | AATCAATC | 0.0358
34 | GATGTTAA | -0.0711
35 | ACAGATAA | -0.148
36 | ACGTGTAA | -0.213
37 | AAGCGCAG | 0.0743
38 | CAAGGACC | -0.13
39 | ATCCTCCC | 0.0165
40 | AGGCGGGG | 0.102
41 | CATTACCA | -0.0444
42 | TCTCTCCA | -0.0861
43 | TCCCAGAA | -0.161
44 | CCTTACTA | -0.00885
45 | ACACTGTA | -0.242
46 | ATTATTTA | 0.0822
47 | ATATTCGA | 0.0739
48 | GGCGCGAC | 0.205
49 | AGAAAGTA | -0.191
50 | CCGTGCAC | 0.0554

Row | Sequence | PBM E-score
51 | AAATGCCA | -0.094
52 | ACGTCAAG | -0.271
53 | AAGGCACA | -0.253
54 | GGTCATAA | 0.313
55 | CCTCCCCC | -0.11
56 | AGTGCCCC | -0.0642
57 | CATCGAGG | -0.23
58 | GTGCTCAA | -0.0795
59 | ACCCACTA | 0.0583
60 | TAGGGTAA | -0.0125
61 | ACGTGAAA | -0.127
62 | ATCATGAT | -0.245
63 | CGCCATTC | 0.142
64 | CCGTAGTC | 0.229
65 | GAATGAGC | -0.029
66 | GAGCTGGC | -0.0387
67 | GAGGACGC | -0.0224
68 | ATTGTGGC | -0.159
69 | AAACCTCA | 0.00633
70 | AAACGACC | -0.0384
71 | CGTCCAGC | -0.105
72 | GCATGAGC | -0.181
73 | ACACAGGA | -0.16
74 | AAAACAGC | -0.0169
75 | CCCCGGTA | 0.334

Row | Sequence | PBM E-score
76 | CACCCCCC | -0.0694
77 | ATATCCGA | 0.463
78 | AGTATCCG | 0.284
79 | ACGGAGTC | 0.149
80 | AACCCTAG | -0.19
81 | TGTCGCAA | -0.0577
82 | GTCCGATA | 0.463
83 | CACGGACC | 0.341
84 | ATTCCTGA | -0.207
85 | AAATGACA | -0.215
86 | CTGCTACA | 0.0385
87 | CGCGGAGA | 0.397
88 | CCGTGTCA | 0.148
89 | TCGACTAA | -0.221
90 | CAAACTTC | -0.105
91 | AGGTACTA | -0.173
92 | CCCTGGGC | -0.21
93 | CCGGGGCC | 0.318
94 | CCCCCCCC | -0.27
95 | TCGAGACA | -0.142
96 | CATGACTA | -0.314
97 | AATTAATG | 0.175
98 | ACCTATCC | -0.0245
99 | ACTTGTGG | -0.104
100 | CACTTAGC | -0.0802

Row | Sequence | PBM E-score
101 | CCTGTTCA | -0.14
102 | AAATTTTC | 0.129
103 | AAGGATCG | -0.0469
104 | CCCACAAG | -0.0447
105 | CAAGGAGC | -0.223
106 | TACACGTA | -0.101
107 | AATGAGGT | -0.0681
108 | CGTCATCA | -0.316
109 | CCCTACAC | -0.00701
110 | ATAATAGC | 0.0944
111 | CAACGCAC | -0.093
112 | CTAGTCTC | -0.111
113 | ATTTCTGG | -0.13
114 | ATCTCGAA | -0.0439
115 | GGAGGATA | -0.0622
116 | CTGTGAGC | -0.109
117 | ATTTAAGG | -0.00117
118 | TGAGGGAA | -0.257
119 | AATCATGG | -0.0861
120 | AATAGTCA | -0.0935
121 | AGCAGGCC | -0.189
122 | AACGTCTC | -0.134
123 | CTACGCTA | -0.136
124 | GCTCCAAA | -0.11
125 | ATTAATAA | 0.171

Row | Sequence | PBM E-score
126 | ATCTCCGG | 0.483
127 | ATCCTATG | -0.0393
128 | AACGAGCA | -0.222
129 | CCAAAAGC | 0.0517
130 | CAGGCATC | -0.222
131 | AGCATACC | -0.166
132 | AGGATTAT | 0.0353
133 | ACAACTCG | 0.0678
134 | ATCGAACC | 0.0819
135 | ACAGTACC | -0.151
136 | CGGATGGA | 0.238
137 | GCCTTATA | 0.101
138 | AATGATCT | -0.0929
139 | AATATGTG | 0.0292
140 | CGTCAAAG | -0.213
141 | CCTTATAA | 0.0568
142 | TCAGCGGA | 0.185
143 | GTGTGGGA | -0.0279
144 | CATTCATC | -0.09
145 | CGAAAACG | 0.169
146 | CGTTTCAG | 0.116
147 | AGCATGAG | -0.147
148 | CATTTACC | -0.0349
149 | ACGTACCC | 0.0098
150 | CACAGTCA | -0.284

Row | Sequence | PBM E-score
151 | GCGCCAGC | -0.136
152 | AAATGGAT | -0.174
153 | ACAGGGGG | -0.243
154 | ATCCCGGA | 0.36
155 | CAACCAGC | -0.0709
156 | CGAGTATC | 0.129
157 | ATCGTGGC | -0.216
158 | TGCAAAAA | -0.155
159 | GGGGATTA | 0.3
160 | ATTTCTCG | 0.173
161 | CCGGTTGA | 0.317
162 | GGCTGATA | 0.0794
163 | AGGAGCGC | 0.0362
164 | ACGAGCGG | 0.161
165 | GTACGGAC | 0.26
166 | GGCTGCCC | -0.0614
167 | GAATTACC | 0.221
168 | AGACGACC | -0.189
169 | AAAGAAAG | -0.067
170 | GCTAGTCC | 0.0704
171 | AGCGACCT | -0.0522
172 | AATTCTCA | -0.214

Reference: the supplement of paper PMC3334620
